In paper PMC4336329 (PLoS ONE, 2015):
Out of some 310,000 compounds screened, about 2,200 (0.71%) showed an effect of 50% or more. Effects have a minus sign here. The list shows a part of the results.

The compounds below were run against human ether-à-go-go-related gene (hERG) potassium channel (human, UniProt Q12809) (assay: primary screen, population patch clamp on CHO cells stably expressing hERG).
human ether-à-go-go-related gene (hERG) potassium channel, sequence (Q12809 whole entry, looked up): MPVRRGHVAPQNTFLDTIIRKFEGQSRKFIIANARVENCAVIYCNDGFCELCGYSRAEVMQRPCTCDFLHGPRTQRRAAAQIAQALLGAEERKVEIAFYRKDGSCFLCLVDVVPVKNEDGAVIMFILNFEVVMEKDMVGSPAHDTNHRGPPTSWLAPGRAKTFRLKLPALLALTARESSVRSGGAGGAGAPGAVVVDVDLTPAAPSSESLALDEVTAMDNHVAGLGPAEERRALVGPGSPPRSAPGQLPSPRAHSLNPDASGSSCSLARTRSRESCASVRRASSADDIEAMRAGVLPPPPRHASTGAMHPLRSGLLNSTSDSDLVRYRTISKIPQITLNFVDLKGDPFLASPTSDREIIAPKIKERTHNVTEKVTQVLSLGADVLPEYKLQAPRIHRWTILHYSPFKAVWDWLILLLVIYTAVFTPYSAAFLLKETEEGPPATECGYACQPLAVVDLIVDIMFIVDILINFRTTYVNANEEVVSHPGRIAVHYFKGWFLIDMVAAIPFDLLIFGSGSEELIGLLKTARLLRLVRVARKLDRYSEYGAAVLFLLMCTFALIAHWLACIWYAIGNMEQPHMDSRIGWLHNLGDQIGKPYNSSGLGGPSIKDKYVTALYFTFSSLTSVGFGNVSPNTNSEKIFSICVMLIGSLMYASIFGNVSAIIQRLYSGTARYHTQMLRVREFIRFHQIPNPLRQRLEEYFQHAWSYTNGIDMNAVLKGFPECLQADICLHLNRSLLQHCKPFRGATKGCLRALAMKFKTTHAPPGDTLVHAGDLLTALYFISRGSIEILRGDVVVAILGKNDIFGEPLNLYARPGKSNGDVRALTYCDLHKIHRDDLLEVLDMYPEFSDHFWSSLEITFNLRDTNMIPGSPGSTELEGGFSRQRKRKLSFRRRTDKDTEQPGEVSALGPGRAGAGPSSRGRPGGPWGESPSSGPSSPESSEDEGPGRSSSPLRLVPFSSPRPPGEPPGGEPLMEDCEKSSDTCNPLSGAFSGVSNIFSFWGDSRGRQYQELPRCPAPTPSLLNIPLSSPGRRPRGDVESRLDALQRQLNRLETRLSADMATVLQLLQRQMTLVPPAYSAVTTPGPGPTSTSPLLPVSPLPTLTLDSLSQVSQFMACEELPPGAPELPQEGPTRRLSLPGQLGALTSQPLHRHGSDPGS

| Structure (SMILES) | hERG current change (%, negative = inhibition) at 1uM |
| --- | --- |
| COc1ccc(/C(N)=N/OC(=O)Cc2ccccc2[N+](=O)[O-])cc1 | 10.3% |
| Cc1cc(C)c2c(NC(=O)C3CC3)nn(C)c2n1 | 7.94% |
| CC(C)(C)NC(=O)c1ccc(COCC(F)(F)F)o1 | -0.831% |
| Cc1ccc2oc(=S)n(C)c2c1 | 7.53% |
| Nc1cc(=O)[nH]c2nnc(SCC(=O)Nc3cccc4ccccc34)n12 | 9.74% |
| COC(=O)C1=C(C(=O)OC)C2(OC1c1ccccc1C)C(=O)c1ccccc1C2=O (stereo not shown) | 16.3% |
| CC(C)[C@H](NC(=O)c1ccccc1)C(=O)OCC(=O)/C=C1/N(C)c2ccccc2C1(C)C | 12% |
| COc1ccc(C(=O)NCc2nnc(SCC(=O)Nc3ccccc3OC)o2)cc1 | 11.3% |
| O=C(CSc1nnc(Cc2csc(Nc3cccc(Cl)c3)n2)o1)N1CCc2ccccc21 | 6.29% |
| O=C(CNC(=O)c1cccs1)Nc1ccc2c(c1)OCCO2 | 11.6% |
| CCOc1ccc(Cl)cc1CNCCc1ccc(F)cc1.Cl | -20.6% |
| CC1CCN(CC(=O)NCc2ccco2)CC1 | 12.5% |
| CCc1ccc(O)c(-c2cc(C(=O)Nc3cccnc3)[nH]n2)c1 | 4.42% |
| O=C(OCc1nc2ccccc2s1)c1cccc(S(=O)(=O)N2CCOCC2)c1 | 0.86% |
| CCOC(=O)c1n[nH]n(-c2cc(Cl)cc(Cl)c2)c1=O | 12.5% |
| CCCCCCCC(=O)N/N=C(\C)c1ccc(N)cc1 | 6.45% |
| COc1cc(NC(=S)Nc2ccc(N(C)C(C)=O)cc2)cc(OC)c1 | 6.21% |
| CCOC(=O)c1c(NC(=O)C2CCCCC2C(=O)O)sc2c1CCCCC2 (stereo not shown) | 14.3% |
| Fc1cc(Cl)c(OCc2noc(-c3ccsc3)n2)c(Cl)c1 | 9% |
| COc1ccccc1C(C(=O)NCc1ccc(F)cc1)N(C(=O)c1csnn1)C1CC1 (stereo not shown) | 5.46% |

| Structure (SMILES) | hERG current change (%, negative = inhibition) at 1uM |
| --- | --- |
| O=C(CNC(=O)c1ccccc1F)N/N=C/c1cccnc1 | 15% |
| COCCn1c(SCC(=O)NC2CCCCC2)nnc1-c1ccco1 | 9.89% |
| O=C(Cn1cc(C(F)(F)F)ccc1=O)N/N=C/c1ccc(Cl)cc1Cl | 4.2% |
| Cc1ccc(NC(=O)CCN2CCN(C/C=C/c3ccccc3)CC2)cc1C.Cl | -53.2% |
| CCN(CC)CCN1C(=O)C(=O)/C(=C(/O)c2ccncc2)C1c1ccccc1 (stereo not shown) | 14.8% |
| COc1cc(NCC(=O)Nc2cccc(S(=O)(=O)N3CCCCC3)c2)cc(OC)c1OC | -2.64% |
| CC(=O)c1sc(NC(=O)C(C)(C)C)nc1C | 13.6% |
| COc1ccc(C(=O)N2CCCCC2C(=O)Nc2ccc(-n3nc(C)cc3C)cc2)o1 (stereo not shown) | 5.34% |
| Cn1cnc(S(=O)(=O)Nc2ccccc2C(=O)NCC2CC2)c1 | 9.61% |
| CC(Oc1ccccc1)C(=O)Nc1cccc(-c2nc3ccccc3[nH]2)c1 (stereo not shown) | -3.3% |
| COc1cccc(OCc2cc(C(=O)N(C)Cc3nccn3C)no2)c1 | 12.8% |
| CCOc1ccc(NC(=O)CN(C)C(=O)c2ccc(C)o2)cc1OCC | 9.15% |
| CCc1ccc(C(=O)CSc2nc(C)cc(=O)[nH]2)cc1 | 15.7% |
| O=C(N/C(=C\c1cccnc1)C(=O)N1CCC(O)CC1)c1ccccc1 | 15% |
| CCCn1c(N)c(N(CCOC)C(=O)c2cccc(F)c2)c(=O)[nH]c1=O | 16.7% |
| CC(=O)CSc1nnc(Cc2ccc3c(c2)OCO3)o1 | 3.55% |
| CC1CCCCN1S(=O)(=O)c1ccc(S(=O)(=O)N2CCN(C)CC2)cc1 (stereo not shown) | 18.4% |
| COc1ccc(C2(NC(C)=O)CCN(Cc3cccnc3)CC2)cc1 | 15.5% |
| COCCCn1c(SCC(=O)Nc2cccc(C)n2)nnc1-c1ccco1 | -20.6% |
| O=C(COC(=O)CCC1CCCC1)Nc1ccccc1Sc1ccccc1 | 17.9% |

| Structure (SMILES) | hERG current change (%, negative = inhibition) at 1uM |
| --- | --- |
| CC(NC(=O)CN1CCN(c2ncccn2)CC1)c1ccc(F)cc1 (stereo not shown) | -0.407% |
| CCNC(=O)NC(=O)C(C)SCc1ccccc1C (stereo not shown) | 18.7% |
| Cc1ccc2ncc(S(=O)(=O)c3ccccc3)c(N3CCCCC3C)c2c1 (stereo not shown) | 13.3% |
| COc1cc(C(=O)N2CCN(Cc3ccc4c(c3)OCO4)CC2)cc(OC)c1OC.O=C(O)C(=O)O | -7.46% |
| CCOC(=O)Cc1c(C)c2c(C)nn(-c3ccccc3)c2oc1=O | 1.63% |
| O=C(/C=C/c1cccc(Cl)c1)Nc1ncccn1 | 15.3% |
| COc1cc(C(=O)N2c3ccccc3CCC2C)cc(OC)c1OC (stereo not shown) | 9.99% |
| CCCC(C)NC(=O)CN1C(=O)c2cccc3cccc1c23 (stereo not shown) | 0.805% |
| CCC1(CC)Cc2ccccc2-c2nc(CN3CCOCC3)[nH]c(=O)c21 | 8.32% |
| COc1ccc(C)cc1-n1nnnc1SCC1CCCO1 (stereo not shown) | 5.83% |
| Cc1cccc(-c2cccc(NC(=O)C3CCCN(C(=O)c4ocnc4C)C3)c2)c1 (stereo not shown) | 7.72% |
| Cc1[nH]n(-c2cccc3ccccc23)c(=O)c1/C=N/NC(=O)c1cccc([N+](=O)[O-])c1 | -7.57% |
| COc1cccc(OC)c1C(=O)Nc1ccc(Cc2ccncc2)cc1 | 3% |
| CC(=O)c1cccc(OCc2cc(C(=O)N(C)Cc3ccc(C)o3)no2)c1 | 4.59% |
| O=C(Nc1ccccc1NC(=O)c1ccco1)c1ccco1 | -6.47% |
| Cc1cccc(N(Cc2ccccc2)C(=O)c2ccc(C)c(S(=O)(=O)N3CCOCC3)c2)c1 | 5.49% |
| COC(=O)C1=C(C)NC(=O)CC1c1ccc(F)c(Br)c1 (stereo not shown) | -1.39% |
| CC(OC(=O)c1ccccc1C(=O)N(C)c1ccccc1)C(=O)Nc1ccc(C(N)=O)cc1 (stereo not shown) | 16.1% |
